Results reported in PubChem BioAssay AID1508642 (National Center for Advancing Translational Sciences (NCATS), 2021).
Out of some 43,000 compounds screened, about 200 (0.47%) were called active. Another 12% or so got no clear call; they are omitted. Calls come from the whole dose curve; as a rule, active = well fitted cell-killing curve with a large enough effect; inconclusive = small, poorly fitted or top-dose-only effect, or effect the other way; inactive = flat fitted curve, though single readings scatter. Some of the results follow.

Experiment: Cell viability qHTS assay in S16 Pmp22-F2sN cells; note: nearly all actives have a fitted effect of over 65% in size
Conditions: S16 Pmp22-F2sN Schwann cells (luciferase reporters placed in the Pmp22 gene) viability, CellTiter-Glo, 24 h; series mostly up to 57.5 µM; activity change, negative = cytotoxicity: at the top concentration
Summary of the method: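 Seed 500-1,000 S16 Pmp22-F2sN cells per well in phenol-red-free DMEM with 10% heat-inactivated FBS; pin-add 23 nL compound; incubate 24 h at 37C; add CellTiter-Glo, wait 15 min protected from light; read luminescence.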
% is set by controls: 0 for no effect and ±100 for the full control effect.

Structure (SMILES)	activity change, negative = cytotoxicity
Cc1ccc2c(CNCc3ccc(C)o3)c(C(=O)O)n(Cc3ccccc3C)c2c1	inactive: -22.7%
CCc1ccc2occ(CC(=O)Nc3c(C(=O)c4ccc(C)cc4)oc4ccccc34)c2c1	inactive: 18.7%
Cc1ccccc1CSc1cn(CC(=O)N2CCCCC2)c2ccccc12	inactive: -10.1%
CCOC(=O)c1c(C)oc2nc(C)nc(NCC3CCN(Cc4ccc(C)cc4)CC3)c12	inactive: -3.8%
CC1Cc2ccccc2N1C(=O)CSc1nc2ccc(NC(=O)COc3ccccc3)cc2s1 (stereo not drawn)	inactive: 15.6%
CC1=C(C(=O)NCc2cccc(F)c2)C2(CCCCC2)OC1=O	inactive: -6.49%
CCOC(=O)C(C)Sc1ccc2nnc(CCNS(=O)(=O)c3ccc(C)cc3)n2n1 (stereo not drawn)	inactive: 8.91%
N#Cc1c(C(F)(F)F)cc(-c2cccs2)nc1SCc1ccc(F)cc1	inactive: 7.23%
CCOc1ccc(CCNC(=O)c2oc(=O)c3ccccc3c2-c2ccc(C)cc2)cc1OCC	inactive: 7.37%
Cc1ccc(NC(=O)CCS(=O)(=O)c2ccc(Br)s2)c(Br)c1	inactive: 10.1%
CC(C)(C)c1ccc(C(=O)NCCc2csc(-c3ccc(Cl)cc3)n2)cc1	inactive: 15.9%
Cc1nn(C)cc1CN(C)C(=O)c1cc(-c2ccccc2)nc2ccc(Br)cc12	inactive: 9.61%
O=C(Nc1cccc(C(F)(F)F)c1)c1cnn(-c2cccc(F)c2)c1C1CCNCC1	inactive: -26.1%
CCOC(=O)C1=C(CN2CCN(c3ccccc3OC)CC2)NC(=O)NC1c1ccccc1 (stereo not drawn)	inactive: -15.1%
Cc1cc(C)cc(NC(=O)N2CCC(CN3CCOCC3)CC2)c1	inactive: 13.8%
CC(C)NC(=O)N1[C@H](c2cccs2)[C@@H](C)C(=O)[C@@H](C)[C@@H]1c1cccs1	inactive: 5.55%
O=C(CN1CCCN(Cc2ccccc2F)S1(=O)=O)Nc1ccc(F)c(Cl)c1	inactive: -13.5%
COc1ccc(C(=O)Nc2ccc(N(C)Cc3ccccc3)c(C(=O)O)c2)cc1	inactive: -1.5%
CCOC(=O)Cn1c(=O)n(CC2CCCO2)c2nc(-c3ccccc3)nc(C(N)=O)c21 (stereo not drawn)	inactive: 10.1%
COC(=O)c1cc2oc(C)cc2n1CC(=O)Nc1ccc(C(C)C)cc1	inactive: -5.32%
CCc1cccc(C)c1NC(=O)Cn1nc(C)n2cccc2c1=O	inactive: -3.03%
CCCCNC(=O)c1ccc2c(=O)n(Cc3ccc(OC)cc3)c(=O)[nH]c2c1	inactive: 4.75%
Cc1ccc(CNCc2ccccc2Cl)s1	inactive: 3.44%
COCc1cc(C)nc2c1C(=O)NC(c1ccc(F)cc1)N2Cc1ccccc1 (stereo not drawn)	inactive: 7.07%
Cc1cccc(NC(=O)CCn2cnc3ccccc3c2=O)c1	inactive: -9.83%

Structure (SMILES)	activity change, negative = cytotoxicity
CCCc1nnc(NC(=O)c2nc(SCC)ncc2Cl)s1	inactive: -0.458%
CCOC(=O)C1=C(CS(=O)(=O)c2ccc(F)c(C)c2)NC(=O)NC1c1ccccc1OC (stereo not drawn)	inactive: -0.638%
CCOC(=O)c1noc2ncn(CC(=O)Nc3cccc(C(F)(F)F)c3)c(=O)c12	inactive: 14%
CCc1nn(CC(=O)N2CCCCC2)c(=O)c2cc3occc3n12	inactive: 18.3%
CCOc1ccc(NC(=O)N2CCN(c3nnc(C)c4c(C)n(-c5ccccc5)nc34)CC2)cc1	inactive: 1.44%
CCOc1ccccc1NC(=O)CN(C)S(=O)(=O)c1ccc(C(=O)N2CCOCC2)s1	inactive: 4.03%
O=c1c(=O)n(-c2ccc(F)c(F)c2)ccn1Cc1ccc(F)cc1Cl	inactive: 2.57%
COc1ccc(C)cc1NC(=O)C1CCCN(c2ncnc3onc(C)c23)C1 (stereo not drawn)	inactive: -9.44%
Cc1ccc2c(=O)cc(C(=O)Nc3sc4c(c3C(=O)NCC3CCCO3)CCC4)oc2c1 (stereo not drawn)	inactive: -1.79%
CCC(C(=O)NCc1ccccc1OC)n1nc(C)n2c(cc3occc32)c1=O (stereo not drawn)	inactive: 1.01%
Cc1oc(-c2ccccc2Cl)nc1CS(=O)(=O)CC(=O)NCc1ccc(F)cc1	inactive: -1.46%
COc1ccc(-n2nc(C(=O)Nc3cc(C)ccn3)c3c4ccccc4n(C)c3c2=O)cc1	inactive: 24.8%
CCCCn1c(=O)n(-c2cc(OC)ccc2OC)c(=O)c2c3c(sc21)CN(C(C)=O)CC3	inactive: 19.5%
O=C(CC1N=C2c3ccccc3N=C(SCc3ccccc3Cl)N2C1=O)NCCc1ccccc1 (stereo not drawn)	inactive: -16.9%
CCOc1ccc(-n2nc3ccc(NC(=O)c4ccc(OC)c(Cl)c4)cc3n2)cc1	inactive: 5.01%
Cc1cc(Cl)ccc1NC(=O)Cc1ccc(NC(=O)N2CCCCc3ccccc32)cc1	inactive: -25.8%
COC(=O)c1cccc(NC2=NS(=O)(=O)c3ccccc32)c1	inactive: -2.51%
Cc1ccc(Nc2c(-c3ccc(C)s3)nc3ccccn23)cc1	inactive: 0.902%
CCc1nn2c(=O)cc(COC(=O)c3ccccc3)nc2s1	inactive: -3.33%
CCOc1ccccc1NC(=O)N(Cc1ccc(C)o1)C1CCN(C(C)=O)CC1	inactive: -6.35%
CCOC(=O)CNC(=O)N1CCCN(S(=O)(=O)c2ccc3c(ccn3CC)c2)CC1	inactive: 28.2%
Cc1ccc(-c2cc3ncc4c(n3n2)-c2cc(F)ccc2OC4)cc1	inactive: 2.21%
CCc1ccc(C(=O)c2cn(CC(=O)Nc3cccc(OC)c3)c3cc4c(cc3c2=O)OCO4)cc1	inactive: 3.19%
O=C(c1ccccc1Br)N(Cc1ccco1)Cc1ccco1	inactive: 6.08%
COc1ccc(C)cc1NC(=O)C1CCN(S(=O)(=O)c2cc(Br)cc3c2N(C(C)=O)CC3)CC1	inactive: 3.62%

Structure (SMILES)	activity change, negative = cytotoxicity
COc1cccc(CNC(=O)Cc2c(C)c3c(cc(C)c4c(C)c(C)oc43)oc2=O)c1	inactive: 4.83%
O=S(=O)(c1ccc(Cl)cc1)c1nc(-c2cccs2)oc1SCc1ccc(F)cc1	inactive: 7.24%
Cn1nnc2c(NCc3ccc(Cl)cc3)ncnc21	inactive: -13.6%
CCc1ccc(CNC(=O)c2cc3n(n2)CCCN(Cc2ccccc2)C3=O)cc1	inactive: 8.08%
Cc1ccc(Cn2c(=O)n(CCc3ccc(Cl)cc3)c(=O)c3ccccc32)cc1	inactive: -1.04%
Cc1ccc(-n2ncc3c(NC(C)c4ccccc4)ncnc32)cc1 (stereo not drawn)	inactive: 4.55%
COc1ccc(NC(=O)Cn2c(=O)n(Cc3ccccc3OC)c(=O)c3cccnc32)cc1Cl	inactive: -6.9%
COc1ccc(OC)c(NC(=O)C2Cc3ccccc3CN2S(=O)(=O)c2ccc(F)cc2)c1 (stereo not drawn)	inactive: -4.22%
CC1=C(C(=O)Nc2ccc(Cl)cc2)C(c2ccccc2F)n2nc(SCc3cccc(Cl)c3)nc2N1 (stereo not drawn)	inactive: -2.8%
Cc1ccc(-c2nc(CS(=O)CC(=O)NCc3ccccc3Cl)c(C)o2)cc1 (stereo not drawn)	inactive: 0.166%
O=c1ccc2cc(S(=O)(=O)Nc3ccc(F)c(Cl)c3)ccc2[nH]1	inactive: -2.74%
CCOc1ccc2nc(SCC(=O)Nc3ccc(F)cc3)nc(-c3ccccc3)c2c1	inactive: -0.181%
COc1ccccc1NC(=O)CSC1=Nc2ccccc2C2=NC(CCC(=O)NCc3ccco3)C(=O)N12 (stereo not drawn)	inactive: 4.78%
COC(=O)c1scc(-c2ccc(C)cc2)c1S(=O)(=O)Nc1cc(Cl)c(OC)cc1OC	inactive: 18.9%
CCCCOc1ccc(Cn2c(=O)sc3ccccc32)cc1OC	inactive: -4.95%
CCCn1c(CCC(=O)Nc2cc(OC)cc(OC)c2)nc2cccnc21	inactive: -0.845%
Cc1ccccc1CCNC(=O)c1ccc2c(c1)nc1n2CCOC1	inactive: -1.62%
CCOC(=O)c1[nH]cnc1C(=O)Nc1cccc(OC)c1	inactive: -0.217%
CCCn1c(CCC(=O)Nc2cc(C(=O)OC)cc(C(=O)OC)c2)nc2cccnc21	inactive: 0.858%
CCCN1CCN(c2nnc(-n3cccc3C(=O)Nc3cc(Cl)ccc3C)s2)CC1	inactive: -1.7%
CCSc1ncc(Cl)c(C(=O)Nc2nc3ccc(S(C)(=O)=O)cc3s2)n1	inactive: 0.024%
Cc1ccc(NC(=O)C2CCCN(S(=O)(=O)c3cccc4nsnc34)C2)cc1C (stereo not drawn)	inactive: 0.907%
COc1ccc(-n2c(=O)c3sc4ccccc4c3n(C)c2=O)cc1	inactive: 13.4%
Cc1cc(NC(=O)CCn2c(=O)c3cccn3c3cccnc32)ccc1Br	inactive: 11.4%
CCC(=O)N1c2ccccc2CC1C(=O)NCCc1cc(OC)c(OC)c(OC)c1 (stereo not drawn)	inactive: 2.8%

Structure (SMILES)	activity change, negative = cytotoxicity
CCc1cccc(NC(=O)CN(c2ccc(C)c(C)c2)S(=O)(=O)c2ccsc2C(=O)OC)c1	inactive: -6.22%
Cc1ccc(C)c(N2CCN(C(=O)CN3C(=O)COc4ccc(S(=O)(=O)N5CCCC5)cc43)CC2)c1	inactive: 7.77%
COc1ccc(C(=O)NCC(c2ccco2)S(=O)(=O)c2ccc(F)cc2)cc1 (stereo not drawn)	inactive: -1.7%
Cc1ccc(C)c(Cn2c(=O)n(CCCCC(=O)NCc3ccc4c(c3)OCO4)c(=O)c3ccccc32)c1	inactive: 5.14%
CCCCn1cc(S(=O)(=O)c2cc(C)ccc2C)c(=O)c2cc(F)c(N3CCC(C)CC3)cc21	inactive: -9.89%
CCOC(=O)c1c(C)[nH]c(C)c1S(=O)(=O)N1CCC(C(=O)Nc2ccc(OCC)cc2)CC1	inactive: -31.1%
CC(C)OCCCNc1ncnc2sc3c(c12)CCCC3	inactive: -9.95%
CCCC(=O)Nc1cc2nn(-c3ccccc3)nc2cc1C	inactive: 0.725%
CCc1ccccc1NC(=O)Nc1c(C)n(C)n(-c2ccccc2)c1=O	inactive: 0.13%
CCOC(=O)c1ccc(N2C(=O)c3[nH]nc(-c4ccc(C)cc4)c3C2c2cccs2)cc1 (stereo not drawn)	inactive: -11.5%
CSc1ncc(C(=O)Nc2ccccc2C(F)(F)F)c(-c2ccccc2)n1	inactive: -1.62%
CCCc1nc2nc(C)c(NS(=O)(=O)c3ccc(CC(C)C)cc3)c(=O)n2[nH]1	inactive: 0.953%
CCCCN(CCCC)CCCNC(=O)Cn1cc2c(n1)-c1c(oc(C(=O)N3CCCC3)c1C)CC2	inactive: 1.73%
CCOC(=O)c1[nH]c2c(c1Cc1ccccc1OC)C(=O)CC(c1ccc(OC)cc1)C2 (stereo not drawn)	inactive: -16.4%
CCc1ccc(-n2c(=O)c3c4c(sc3n(Cc3cc(=O)n5c(C)cccc5n3)c2=O)CCC4)cc1	inactive: 20.7%
Cc1ccc(CNC(=O)c2nn(-c3ccc(Cl)cc3)nc2CO)cc1	inactive: 28%
Cc1ccccc1CSc1nnc2[nH]c(=O)cc(-c3ccccc3)n12	inactive: 2.71%
CCOC(=O)c1ccccc1NC(=O)Cn1ncc2c1-c1ccccc1OC2	inactive: 16.2%
Cc1cc(C)cc(NC(=O)CSc2oc(-c3ccccc3)nc2S(=O)(=O)c2ccc(Cl)cc2)c1	inactive: -15.3%
Cc1ccc(NC(=O)Cn2nc(C(F)(F)F)c3c2CCCC3)cc1C	inactive: 20.3%
Cc1ccc(N2C(=O)c3n[nH]c(C)c3C2c2ccc(Cl)cc2)cc1 (stereo not drawn)	inactive: 9.42%
Cc1ccc2c(c1)N(CC(=O)NCCc1ccccc1)C(=O)CO2	inactive: 2.07%
CCc1ccccc1NS(=O)(=O)c1ccc2nc(-c3ccccc3)[nH]c2c1	inactive: -14.2%
